# Data taken from PMC4336329 (PLoS ONE, 2015).
# In all, about 310,000 compounds went through this assay and about 14,000 (4.5%) showed an effect of 50% or more. The effect is printed as a negative number. The list shows a part of the results.
# Target: human ether-à-go-go-related gene (hERG) potassium channel (human, UniProt Q12809)
# Experiment: primary screen, population patch clamp on CHO cells stably expressing hERG
# 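Note: peak tail current of the secondary pulse compared with the same well before compound.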
# Chain of human ether-à-go-go-related gene (hERG) potassium channel (Q12809 whole entry, looked up): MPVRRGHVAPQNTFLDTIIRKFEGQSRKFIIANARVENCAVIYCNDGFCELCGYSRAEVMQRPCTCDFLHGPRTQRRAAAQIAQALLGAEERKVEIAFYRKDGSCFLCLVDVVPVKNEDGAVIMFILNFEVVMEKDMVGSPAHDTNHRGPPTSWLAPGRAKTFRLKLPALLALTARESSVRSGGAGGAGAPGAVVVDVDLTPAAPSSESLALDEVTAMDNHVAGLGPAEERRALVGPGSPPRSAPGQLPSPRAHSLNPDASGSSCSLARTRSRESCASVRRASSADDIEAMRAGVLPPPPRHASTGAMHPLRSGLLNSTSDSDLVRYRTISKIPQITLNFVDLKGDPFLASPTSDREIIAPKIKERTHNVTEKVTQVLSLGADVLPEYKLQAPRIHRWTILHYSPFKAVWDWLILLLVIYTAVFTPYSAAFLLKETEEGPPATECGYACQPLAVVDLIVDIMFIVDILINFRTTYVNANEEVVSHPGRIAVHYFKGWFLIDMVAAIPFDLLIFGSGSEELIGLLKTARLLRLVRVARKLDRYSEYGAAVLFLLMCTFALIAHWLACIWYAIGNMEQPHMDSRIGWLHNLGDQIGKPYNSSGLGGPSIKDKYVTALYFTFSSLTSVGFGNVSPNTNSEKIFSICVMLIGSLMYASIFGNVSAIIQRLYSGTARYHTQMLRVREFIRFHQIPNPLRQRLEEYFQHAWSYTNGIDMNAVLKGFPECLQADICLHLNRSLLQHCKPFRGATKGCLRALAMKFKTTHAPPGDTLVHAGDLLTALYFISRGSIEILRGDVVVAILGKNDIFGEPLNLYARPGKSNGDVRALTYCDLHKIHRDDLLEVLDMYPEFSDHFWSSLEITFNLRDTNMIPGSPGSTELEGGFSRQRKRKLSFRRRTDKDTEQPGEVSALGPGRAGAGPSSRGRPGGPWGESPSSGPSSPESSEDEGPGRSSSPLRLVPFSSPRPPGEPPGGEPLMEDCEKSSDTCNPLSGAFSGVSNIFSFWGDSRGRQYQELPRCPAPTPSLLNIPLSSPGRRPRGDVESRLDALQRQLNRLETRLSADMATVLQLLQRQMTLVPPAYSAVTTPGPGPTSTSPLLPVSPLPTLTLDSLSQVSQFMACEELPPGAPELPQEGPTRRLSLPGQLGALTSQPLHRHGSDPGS
row,SMILES,"hERG current change (%, negative = inhibition) at 10uM"
1,CC(C)N(Cc1nc(-c2ccccc2)no1)C(=O)COc1ccccc1,-34%
2,CC(C)C(=O)Nc1ccc(Sc2ccc(F)cc2)cc1,-3.48%
3,O=C(Nc1ccc2c(c1)CCC2)C1CCN(c2ncccn2)CC1,20.6%
4,CCCC1=C(C(=O)OCC)C(c2ccc(O)cc2)n2ncnc2N1 (centres unmarked),5.09%
5,Nc1nc(NS(=O)(=O)c2ccc(Cl)cc2)nn1-c1ccccc1,-9.32%
6,Cc1ccc(Cn2nnnc2CN2CCC(NC(=O)C(C)(C)C)CC2)cc1.Cl,0.395%
7,CCOC(=O)c1sc(NC(=S)NC(=O)C2CCCC2)cc1C,7.72%
8,COC(=O)c1ccc(S(=O)(=O)N2C3CCC2CC(NC(=O)C2CC2)C3)cc1 (centres unmarked),-1.57%
9,Cc1ccc(S(=O)(=O)N2CCN(C(=O)CCC(=O)NCc3ccc(F)cc3)CC2)cc1,-24%
10,Cc1cccnc1NC1(C(F)(F)F)N=C(c2ccccc2)NC1=O (centres unmarked),-14.4%
11,Cc1ccc(/C=C/C(=O)NCCc2cccc(Cl)c2)o1,-31.1%
12,CC1(C)C2([N+](=O)[O-])CN3CN(C2)CC1([N+](=O)[O-])C3,13.1%
13,O=C(Cc1ccc([N+](=O)[O-])cc1)OCc1c(F)cccc1Cl,13.4%
14,O=c1[nH]c(CN2CCN(c3ccc(O)cc3)CC2)nc2scc(-c3ccc(Cl)cc3)c12,-10.7%
15,Cc1ccc(CN2CCN(Cc3ccc(OC(C)C)cc3)CC2CCO)o1 (centres unmarked),-35.5%
16,CCCCc1ccc(C(=O)NC(C(=O)O)C(C)C)cc1 (centres unmarked),14.3%
17,CCOC(=O)N1CCN(S(=O)(=O)c2ccc(OC)cc2)CC1,-4.57%
18,Cc1ccc2nc(Cl)c3nnnn3c2c1,1.02%
19,COc1ccc(C)cc1NC(=O)Nc1cccc(C(=O)O)c1,13.5%

row,SMILES,"hERG current change (%, negative = inhibition) at 10uM"
1,Cl.NC(N)=NCCCC(NC(=O)c1ccccc1)C(=O)Nc1ccc([N+](=O)[O-])cc1 (centres unmarked),-2.35%
2,COc1ccc(/C=N/n2c(N)c(S(=O)(=O)c3cccs3)c3nc4ccccc4nc32)cc1OC,14.3%
3,CCOC(=O)C1CCCN(c2cc(=O)n(Cc3ccc(F)cc3)c(=O)[nH]2)C1 (centres unmarked),-21.6%
4,CCCOc1ccc(CCc2n[nH]c(=S)n2-c2ccccc2)cc1,8.66%
5,Cc1ccc(NC(=O)c2sc3ncn(CC(=O)N4CCN(c5ccccn5)CC4)c(=O)c3c2C)cc1Cl,-7.77%
6,CCOC(=O)CSc1nc(C)cc2c1C(=O)OC2,-1.31%
7,Cc1cc(C(=O)O)ccc1N=Cc1c(O)ccc2ccccc12,8.08%
8,c1ccc(Oc2ncnc3sccc23)cc1,21.7%
9,CC1(c2nnc(-c3cccc(Cl)c3)o2)CC(c2ccccc2Br)=NO1 (centres unmarked),-3.78%
10,Cc1ccc(OCc2cc(C(=O)N(C)Cc3cnc4ccccn34)no2)cc1C,-41.6%
11,COC1CCCN(C(=O)c2ccc3nc(Cc4cccc(Cl)c4)oc3c2)C1 (centres unmarked),-13.1%
12,O=C(NC(=S)Nc1ccc(N2CCCCC2)c(Cl)c1)c1ccc2c(c1)OCCO2,20.2%
13,N#C/C(=C(/O)COc1ccc(Br)cc1)c1nnc2n1CCCCC2,17.1%
14,Cn1c(=O)c2c(SCc3ccccn3)nc(C3CC3)nc2n(C)c1=O,6.51%
15,CCOC(=O)C1CCN(C(=O)c2cn(CCOC)c(=O)c3c2c2ccccc2n3C)CC1,-15.5%
16,C/C(=N\NC(=O)c1c(Cl)cnn1C)c1ccc(NC(=O)c2ccncc2)cc1,-1.23%
17,O=C(CN1C(=O)C2CCCCC2C1=O)Nc1cc(C(F)(F)F)ccc1N1CCCC1 (centres unmarked),-9.2%
18,CCOC(=O)c1sc(NS(=O)(=O)c2ccccc2Cl)nc1C,-5.74%
19,CCOc1ccc(NC(=O)Cn2c(=O)n(CCCC(=O)NC3CCN(Cc4ccccc4)CC3)c(=O)c3ccccc32)cc1,-38%

row,SMILES,"hERG current change (%, negative = inhibition) at 10uM"
1,O=C(COc1ccccc1)Nc1nnc(S(=O)(=O)N2CCCCCC2)s1,2.36%
2,CC(=O)Nc1cnc(NC(=O)c2cccc(F)c2)cc1C,10.5%
3,Cc1cc(-c2ccccc2)nc(SCc2ccc(C(=O)O)o2)n1,-3.89%
4,COc1ccc(C(=O)Nc2ccc(NC(=O)C(C)C)nc2)cc1,18.9%
5,CC(C)N1C(=O)C2C(C(=O)NC3CCCCC3)C3C=CC2(O3)C1C(=O)NC1CCCC1 (centres unmarked),-2.54%
6,CCOC(=O)c1cnc(-n2nc(C)cc2C)nc1-n1nc(C)cc1C,-12.8%
7,CC(=O)Nc1ccc(S(=O)(=O)N2CCN(c3cc(C)nc4ncnn34)CC2)cc1,-27.9%
8,COc1cc2[nH]c3ccccc3c2cc1C,2.45%
9,CCOC(=O)CCCNC(=O)COC(=O)c1cccc(F)c1,6.75%
10,CSc1ncc(C(=O)Nc2ccc(C(C)=O)cc2)c(-c2ccccc2)n1,6.5%
11,CCCCc1nc2c(C)c(N)cnc2n1Cc1cccc([N+](=O)[O-])c1,-44.1%
12,CS(=O)(=O)N(CC(=O)N1CCCC1)Cc1ccccc1,7.66%
13,COc1ccc(CCNC(=O)C2CCCN(S(C)(=O)=O)C2)cc1 (centres unmarked),-5.59%
14,O=C(Cc1ccc(S(=O)(=O)N2CCCC2)s1)NC1CCCCCC1,-31.4%
15,Cc1cc(C)c(C(=O)O)c(Cl)n1,5.94%
16,O=C(CSc1n[nH]c(=O)[nH]c1=O)Nc1ccc(Br)cc1Br,9.39%
17,CCCC(=O)N1c2ccccc2[C@@H](N(C(C)=O)c2ccccc2)C[C@H]1C,-4.91%
18,C/C(=N\NC(=O)c1cccs1)c1ccc(C(=O)O)s1,28.3%
